Like-named read-outs stand apart in the source and are kept apart here.
What was measured:
[1] = tested on: rice blast fungi (Magnaporthe grisea); format: in vivo; settings: for Test A control value: rice blast; for Test A control value class (rice blast): control value=100{1-(n/3)}
[2] = tested on: tomato late blight fungi (Phytophthora infestans); format: in vivo; settings: for Test F control value: tomato late blight; for Test F control value class (tomato late blight): control value=100{1-(n/3)}
[3] = tested on: cucumber anthracnose fungi (Colletotrichum orbiculare); assay: Test Example H: cucumber anthracnose, spray treatment of cucumber plants; settings: for Test H control value: cucumber anthracnose, 6 to 10 days after inoculation; for Test H control value class (cucumber anthracnose): 2.5 ml/pot, cucumber Sagami Hanjiro, 6 to 10 days from inoculation
[4] = spray treatment of tomato plants

| SMILES | Test A control value class (rice blast) ([1]; spray treatment of rice plants) | Test F control value class (tomato late blight) [2, 4] | Test H control value class (cucumber anthracnose) ([3]; 250 ppm spray) | Test A control value ([1]; spray treatment) | Test F control value ([2]; spray treatment) | Test H control value ([3]; 250 ppm spray) | other results |
| --- | --- | --- | --- | --- | --- | --- | --- |
| Cc1ccccc1-n1cc(Br)c(=O)c(Cl)c1-c1ccc(C#N)cc1 [Compound 237] |  |  |  |  |  |  | Test A control value ([1]; spray treatment of rice plants): H (H shows the control value of more than 50%); Test F control value [2, 4]: L (L shows the control value of 50% or less); Test H control value ([3]; 250 ppm spray (2.5 ml/pot)): L (L shows the control value of 50% or less) |
| CC(C)C(C)n1cc(Cl)c(=O)c(Cl)c1-c1c(F)cc(F)cc1F (stereo not drawn) [Compound 41] | H (H shows the control value of more than 50%) | L (L shows the control value of 50% or less) | H (H shows the control value of more than 50%) |  |  |  |  |
| Cc1ccc(Br)cc1-n1cc(Cl)c(=O)c(Cl)c1-c1c(F)cc(F)cc1F [Compound 250] |  |  |  |  |  |  | Test A control value ([1]; spray treatment of rice plants): H (H shows the control value of more than 50%); Test F control value [2, 4]: L (L shows the control value of 50% or less); Test H control value ([3]; 250 ppm spray (2.5 ml/pot)): H (H shows the control value of more than 50%) |
| Cc1c(Br)cccc1-n1cc(C)c(=O)c(C)c1-c1ccccc1 [Compound 565] |  |  |  | H (H shows the control value of more than 50%) | L (L shows the control value of 50% or less) | L (L shows the control value of 50% or less) |  |
| Cc1cn(C(C)C(C)C)c(-c2c(F)cc(F)cc2F)c(Cl)c1=O (stereo not drawn) [Compound 135] | H (H shows the control value of more than 50%) | L (L shows the control value of 50% or less) | H (H shows the control value of more than 50%) |  |  |  |  |
| CC(C)c1ccccc1-n1cc(Cl)c(=O)c(Cl)c1-c1c(F)cc(F)cc1F [Compound 395] |  |  |  | H (H shows the control value of more than 50%) | L (L shows the control value of 50% or less) | H (H shows the control value of more than 50%) |  |
| COc1cccc(-n2cc(Br)c(=O)c(Cl)c2-c2c(F)cc(F)cc2F)c1C [Compound 366] |  |  |  |  |  |  | Test A control value ([1]; spray treatment of rice plants): H (H shows the control value of more than 50%); Test F control value [2, 4]: H (H shows the control value of more than 50%); Test H control value ([3]; 250 ppm spray (2.5 ml/pot)): H (H shows the control value of more than 50%) |
| COc1cc(F)c(-c2c(Cl)c(=O)c(Br)cn2-c2ccccc2F)c(F)c1 [Compound 21] | H (H shows the control value of more than 50%) | L (L shows the control value of 50% or less) | H (H shows the control value of more than 50%) |  |  |  |  |
| COCOc1ccc(C)c(-n2cc(Br)c(=O)c(Cl)c2-c2c(F)cccc2F)c1 [Compound 427] |  |  |  | H (H shows the control value of more than 50%) | H (H shows the control value of more than 50%) | H (H shows the control value of more than 50%) |  |
| CCc1c(-c2c(F)cccc2F)n(-c2ccccc2C)cc(C)c1=O [Compound 508] |  |  |  | H (H shows the control value of more than 50%) | L (L shows the control value of 50% or less) | H (H shows the control value of more than 50%) |  |
| Cc1cccc(Cl)c1-n1cc(Cl)c(=O)c(Br)c1-c1c(F)cc(F)cc1F [Compound 318] |  |  |  |  |  |  | Test A control value ([1]; spray treatment of rice plants): H (H shows the control value of more than 50%); Test F control value [2, 4]: L (L shows the control value of 50% or less); Test H control value ([3]; 250 ppm spray (2.5 ml/pot)): H (H shows the control value of more than 50%) |
| Cc1ccccc1-n1cc(Br)c(=O)c(Cl)c1-c1c(F)cccc1F [Compound 111] | L (L shows the control value of 50% or less) | L (L shows the control value of 50% or less) | H (H shows the control value of more than 50%) |  |  |  |  |
| Cc1ccc(-c2c(Cl)c(=O)c(Cl)cn2-c2ccccc2C)cc1 [Compound 411] |  |  |  | L (L shows the control value of 50% or less) | L (L shows the control value of 50% or less) | L (L shows the control value of 50% or less) |  |
| O=c1c(Br)cn(-c2ccc(F)cc2Cl)c(-c2c(F)cccc2F)c1Br [Compound 97] | H (H shows the control value of more than 50%) | L (L shows the control value of 50% or less) | H (H shows the control value of more than 50%) |  |  |  |  |
| CCOC(=O)Cn1cc(Cl)c(=O)c(Cl)c1-c1c(F)cc(F)cc1F [Compound 145] | L (L shows the control value of 50% or less) | L (L shows the control value of 50% or less) | L (L shows the control value of 50% or less) |  |  |  |  |
| CCc1c(-c2c(F)cc(F)cc2F)n(-c2cccc(F)c2C)cc(C)c1=O [Compound 554] |  |  |  | H (H shows the control value of more than 50%) | H (H shows the control value of more than 50%) | H (H shows the control value of more than 50%) |  |

| SMILES | Test A control value class (rice blast) ([1]; spray treatment of rice plants) | Test F control value class (tomato late blight) [2, 4] | Test H control value class (cucumber anthracnose) ([3]; 250 ppm spray) | Test A control value ([1]; spray treatment) | Test F control value ([2]; spray treatment) | Test H control value ([3]; 250 ppm spray) | other results |
| --- | --- | --- | --- | --- | --- | --- | --- |
| CC(C)n1cc(Br)c(=O)c(Cl)c1-c1c(F)cc(F)cc1F [Compound 13] | L (L shows the control value of 50% or less) | L (L shows the control value of 50% or less) | H (H shows the control value of more than 50%) |  |  |  |  |
| CCc1c(-c2c(F)cccc2F)n(-c2cc(Br)ccc2C)cc(Br)c1=O [Compound 561] |  |  |  | H (H shows the control value of more than 50%) | L (L shows the control value of 50% or less) | H (H shows the control value of more than 50%) |  |
| COc1cc(F)c(-c2c(C)c(=O)c(C)cn2-c2ccccc2Br)c(F)c1 [Compound 456] |  |  |  | H (H shows the control value of more than 50%) | L (L shows the control value of 50% or less) | H (H shows the control value of more than 50%) |  |
| CC1CCCCC1n1cc(Cl)c(=O)c(Cl)c1-c1c(F)cc(F)cc1F (stereo not drawn) [Compound 153] | H (H shows the control value of more than 50%) | L (L shows the control value of 50% or less) | L (L shows the control value of 50% or less) |  |  |  |  |
| COc1cc(F)c(-c2c(Cl)c(=O)c(Cl)cn2CCc2ccccc2)c(F)c1 [Compound 102] | L (L shows the control value of 50% or less) | L (L shows the control value of 50% or less) | L (L shows the control value of 50% or less) |  |  |  |  |
| CCc1ccc(OCOC)cc1-n1cc(C)c(=O)c(C)c1-c1c(F)cccc1F [Compound 620] |  |  |  | H (H shows the control value of more than 50%) | L (L shows the control value of 50% or less) | H (H shows the control value of more than 50%) |  |
| Cc1ncccc1-n1cc(Br)c(=O)c(Cl)c1-c1c(F)cc(F)cc1F [Compound 458] |  |  |  | H (H shows the control value of more than 50%) | L (L shows the control value of 50% or less) | H (H shows the control value of more than 50%) |  |
| Cc1cccc(F)c1-c1c(C)c(=O)c(C)cn1-c1ccccc1 [Compound 610] |  |  |  | L (L shows the control value of 50% or less) | L (L shows the control value of 50% or less) | H (H shows the control value of more than 50%) |  |
| COc1cc(F)c(-c2c(C)c(=O)c(C)cn2-c2cccc(C)c2C)c(F)c1 [Compound 477] |  |  |  | H (H shows the control value of more than 50%) | L (L shows the control value of 50% or less) | H (H shows the control value of more than 50%) |  |
| CCc1ccccc1-n1cc(C)c(=O)c(CC)c1-c1ccccc1 [Compound 534] |  |  |  | L (L shows the control value of 50% or less) | L (L shows the control value of 50% or less) | H (H shows the control value of more than 50%) |  |
| CCc1c(-c2ccccc2)n(-c2ccccc2Cl)cc(Br)c1=O [Compound 535] |  |  |  | L (L shows the control value of 50% or less) | L (L shows the control value of 50% or less) | H (H shows the control value of more than 50%) |  |
| O=c1c(Cl)cn(CCc2ccccc2)c(-c2c(F)cc(F)cc2F)c1Cl [Compound 94] | L (L shows the control value of 50% or less) | L (L shows the control value of 50% or less) | L (L shows the control value of 50% or less) |  |  |  |  |
| O=c1c(Br)cn(-c2ccccc2Br)c(-c2c(F)cc(F)cc2F)c1Cl [Compound 37] | H (H shows the control value of more than 50%) | L (L shows the control value of 50% or less) | H (H shows the control value of more than 50%) |  |  |  |  |
| CCc1c(-c2c(F)cc(F)cc2F)n(-c2cc(Cl)ccc2C)cc(Br)c1=O [Compound 556] |  |  |  | H (H shows the control value of more than 50%) | H (H shows the control value of more than 50%) | H (H shows the control value of more than 50%) |  |
| Cc1cc(-n2cc(Cl)c(=O)c(Cl)c2-c2c(F)cc(F)cc2F)no1 [Compound 138] | H (H shows the control value of more than 50%) | L (L shows the control value of 50% or less) | H (H shows the control value of more than 50%) |  |  |  |  |
